Reference: patent publication US12577196B2 (priority 2019, dated 2026)

Key:
US3-6-EGFP-HCMV-AD169 [1] = assay: microbe, parasite or virus in culture; conditions: Human betaherpesvirus 5, AD169, MRC5, 168 h
US3-6-EGFP-HCMV-AD169 [2] = conditions: CC50/EC50, HCMV in MRC5 cells
[3] = test system: Escherichia coli ATCC-8739; assay: microbe, parasite or virus in culture
Description: (§1) MIC Determination by Broth Micro Dilution
(§2) Standardisation of Inoculum
(§3) The inoculums were mixed.
(§4) Inoculation and Incubation

[4] = test system: Pseudomonas aeruginosa ATCC-9027; assay: microbe, parasite or virus in culture; conditions: ATCC9027
Description: as §1, §2, §3, §4

| Compound | EC50 (US3-6-EGFP-HCMV-AD169 [1]) [µg/mL] | SI (CC50/EC50) (US3-6-EGFP-HCMV-AD169 [2]) | MIC [3] [µg/mL] | MIC ([3]; Escherichia coli, ATCC8739) [µg/mL] | MIC [4] [µg/mL] |
| --- | --- | --- | --- | --- | --- |
| Cc1ccc(C(C)C)cc1OC(=O)C[N+](C)(C)CCCCCCCCCC[N+](C)(C)CC(=O)Oc1cc(C(C)C)ccc1C [Formula IV, N1,N10-bis(2-(5-isopropyl-2-methylphenoxy)−2-oxoethyl)-N1,N1,N10,N10-tetramethyldecane-1,10-diaminium dichloride] | 32.8 | >3.66 | 1.95 | 3.9 | 0.98 |
| CN[C@H](CC(C)C)C(=O)N[C@H]1C(=O)N[C@@H](CC(N)=O)C(=O)N[C@H]2C(=O)N[C@H]3C(=O)N[C@H](C(=O)N[C@H](C(=O)O)c4cc(O)cc(O)c4-c4cc3ccc4O)[C@H](O)c3ccc(c(Cl)c3)Oc3cc2cc(c3O[C@@H]2O[C@H](CO)[C@@H](O)[C@H](O)[C@H]2O[C@H]2C[C@](C)(N)[C@H](O)[C@H](C)O2)Oc2ccc(cc2Cl)[C@H]1O [Vancomycin, reference compound] |  |  |  | 78 (≈ 53.8 µM) |  |
| Cc1ccc(C(C)C)c(OC(=O)C[N+](C)(C)CCCCCCCCCC[N+](C)(C)CC(=O)Oc2cc(C)ccc2C(C)C)c1 [Formula V, N1,N10-bis(2-(2-isopropyl-5-methylphenoxy)−2-oxoethyl)-N1,N1,N10,N10-tetramethyldecane-1,10-diaminium dichloride] |  |  | 1.95 | 3.9 | 3.9 |

Values after ≈ are worked out from the molar mass of the structure shown. Read-outs that look alike come from different tables or passages of the source.
